Drawing on PubChem BioAssay AID1645887 (National Center for Advancing Translational Sciences (NCATS), 2021), this text covers activation for 86 compounds.

Each structure is given as a SMILES string. Values joined by “and” are separate entries in the source; they are usually repeats but may differ in a detail not shown here. Equal values may be shown once. Screen size: about 16,000 compounds; about 40 (0.2%) were called active. Not shown: some 1% with an inconclusive outcome. Calls follow the shape of the dose curve; as a rule, active = well fitted activation curve with a large enough effect; inconclusive = small, poorly fitted or top-dose-only effect, or another doubt; inactive = no such curve, though single readings can be large or run the other way. The list shows a part of the results.
% is scaled to controls: 0 for no effect and ±100 for the full control effect.

For this test, the target named is Rap guanine nucleotide exchange factor 4 (Homo sapiens) (UniProt Q8WZA2). Nature of the test: Validation qHTS for agonist of cAMP-regulated guanine nucleotide exchange factor 4 (EPAC2).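 Also: exchange makes BODIPY-GDP fluorescence drop when released from Rap1B; series mostly up to about 150 µM.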 As to conditions: EPAC2 Rap1B BODIPY-GDP exchange, fluorescence; activation: hits give high values. Put shortly: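 Signal normalized against 6.5 mM cAMP as agonist control. Mix of EPAC2 (100 nM), RAP1B-BODIPY-GDP (250 nM) and GDP (50 uM) was read kinetically at 480/540 nm, every 5 min over 30 min, after 5 min room-temperature incubation with compound.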
Chain of UniProt Q8WZA2 (Q8WZA2 whole entry, looked up): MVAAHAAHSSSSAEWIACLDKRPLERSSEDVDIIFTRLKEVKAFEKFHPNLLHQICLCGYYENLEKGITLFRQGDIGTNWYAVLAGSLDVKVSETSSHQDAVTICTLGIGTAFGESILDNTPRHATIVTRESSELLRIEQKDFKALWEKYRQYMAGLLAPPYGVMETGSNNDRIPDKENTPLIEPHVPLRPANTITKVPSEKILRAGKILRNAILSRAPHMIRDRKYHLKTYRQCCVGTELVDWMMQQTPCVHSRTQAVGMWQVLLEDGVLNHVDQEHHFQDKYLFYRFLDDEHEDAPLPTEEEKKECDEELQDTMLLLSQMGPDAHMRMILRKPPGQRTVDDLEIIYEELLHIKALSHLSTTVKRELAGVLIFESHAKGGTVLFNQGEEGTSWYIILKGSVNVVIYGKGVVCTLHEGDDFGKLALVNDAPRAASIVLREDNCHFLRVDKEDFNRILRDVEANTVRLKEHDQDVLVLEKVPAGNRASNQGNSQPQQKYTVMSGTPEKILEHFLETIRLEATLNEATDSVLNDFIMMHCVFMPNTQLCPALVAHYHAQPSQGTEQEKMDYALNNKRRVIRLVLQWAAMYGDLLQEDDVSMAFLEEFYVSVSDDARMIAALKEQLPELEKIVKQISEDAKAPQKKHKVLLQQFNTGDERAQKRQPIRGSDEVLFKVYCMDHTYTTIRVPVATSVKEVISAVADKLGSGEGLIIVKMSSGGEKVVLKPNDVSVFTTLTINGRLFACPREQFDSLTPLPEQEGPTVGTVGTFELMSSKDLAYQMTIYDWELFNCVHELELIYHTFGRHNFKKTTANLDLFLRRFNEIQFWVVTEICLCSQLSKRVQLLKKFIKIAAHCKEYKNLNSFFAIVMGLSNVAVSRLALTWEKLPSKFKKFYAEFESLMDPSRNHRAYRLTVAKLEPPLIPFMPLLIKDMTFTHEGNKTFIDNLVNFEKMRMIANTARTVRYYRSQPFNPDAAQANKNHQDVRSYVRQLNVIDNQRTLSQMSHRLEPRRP
A general note: In qHTS, concentration-response curves come from the screen itself.
Turning to `CC1CN(CCC(=O)N2CCCC(C(=O)c3nccn3C)C2)Cc2cc(Cl)ccc2O1` (stereo unspecified), the activation was inactive: 8.79%.
`Fc1ccc(Nc2nc(-c3ccoc3)nc3ccccc23)cc1`: the activation is inactive: -3.25%.
Consider `O=c1cc(-c2cc3ccccc3oc2=O)c2ccc(O)cc2o1`, for which the activation was inactive: -3.59%.
Turning to `CNc1nc(-c2ccccc2CN(C)C)nc2ccccc12`, the activation is inactive: -8.66%.
`FC(F)(F)c1ccccc1-c1nc(NCc2cccs2)c2ccccc2n1`: the activation was inactive: 5.83%.
Under `O[Si](CCCN1CCCCC1)(c1ccc(F)cc1)C1CCCCC1` (stereo unspecified) stands inactive: -25.5%; under `c1ccc(N2CCN(CCCOc3ccc4c(c3)OCO4)CC2)cc1`, inactive: 7.91% and inactive: 2.5%; under `O=C(C1CCCCC1)N(CCN1CCN(c2ccccc2CO)CC1)c1ccccn1`, inactive: 2.62%.
Under `c1cncc(OC2CCN(Cc3ccc4c(c3)CN(Cc3nc5ccccc5s3)CCO4)CC2)c1` stands inactive: 0.549%.
`COCc1c(C(=O)N2CCCCCC2)cnn1-c1nccc(-c2cccs2)n1`: the activation is inactive: -12.9%.
Under `COc1ccccc1/C=C\C(=O)O` stands inactive: -6.2%; under `COC(=O)N1CCC2(CCCN(Cc3ccccc3)C2)CC1`, inactive: -7.64%.
On to `CCOC(=O)C1=C(C)NC(C)=C(C(=O)OC)C1c1cccc([N+](=O)[O-])c1` (stereo unspecified), for which the activation was inactive: -11.7% and inactive: -10.6% and inactive: -3.01%.
With `COCCOC(=O)C1=C(C)NC(C)=C(C(=O)OC(C)C)[C@@H]1c1cccc([N+](=O)[O-])c1`, the activation was inactive: -17.8%.
`CCCCCCCCCCCCCCCCC(C(=O)O)C(O)(CC(=O)O)C(=O)O` (stereo unspecified): the activation is inactive: -41.7%.
Regarding `Cc1nc2c(OCc3ccccc3)cccn2c1CC#N`, the activation was inactive: -17.7% and inactive: -2.55%.
In the case of `COCCC1CCCCN1Cc1nc(N2CCCCC2)c2cc(OC)c(OC)cc2n1` (stereo unspecified) it was inactive: -4.09%; in that of `Cc1nc(C)n(CC(=O)NCC2Cc3cc(-c4cccc(OC(F)(F)F)c4)ccc3O2)n1` (stereo unspecified), inactive: -1.91%; in that of `CN1CCN(c2ncnc3ccc(-c4ccccc4C#N)cc23)CC1`, inactive: -17%.
In the case of `COc1cccc(C(=O)N2CCc3c(C(=O)NC(C)c4ccco4)c(OC)cc(=O)n3CC2)c1OC` (stereo unspecified) it was inactive: -0.0381%; in that of `COc1ccc2[nH]cc(CCNc3ncnc4ccc(-c5cccnc5)cc34)c2c1`, inactive: 10.4%.
Take `NC(=O)C[C@@H](N)C(=O)O`: the activation is inactive: -13.6%.
Under `Cc1ccc(F)cc1S(=O)(=O)NCc1nc(N2CCCC2)c2cccc(C)c2n1` stands inactive: -18.2%; under `N#Cc1cccc(CN2CCC(=O)N([C@H](CO)c3ccccc3)CC2)c1`, inactive: -2.94%; under `COc1cccc(Cc2nc3cccnc3n2C2CCN(Cc3ccc(C)s3)CC2)c1`, inactive: -3.99%.
Under `Cc1cc(C)cc(C(=O)NCCn2cc(C(=O)N3CCSCC3)nn2)c1` stands inactive: -4.23%.
Under `N[C@H](C(=O)O)[C@H](Cc1ccccc1)C(=O)O` stands inactive: -25%; under `CC(=O)OC[C@@]1(O)C[C@@]23CC[C@@H]4c5ccoc5CC[C@@]4(C)[C@@H]2CCC1C3`, inactive: -0.868%; under `O=C1C[C@H](c2ccccc2)Oc2cc(O)cc(O)c21`, inactive: -11%.
On to `O=S(=O)(c1ccccc1)N1CCC2(CCN(c3cccc(-c4ccccc4)c3)CC2)CC1`, for which the activation is inactive: -2.97%.
In the case of `COc1ccc(CNc2cc(-c3ccccc3CN(C)C)ncn2)c(OC)c1` it was inactive: -6.37%; in that of `CCC(COC)NC(=O)c1cnn(-c2ncc3c(n2)-c2ccccc2CC3)c1C` (stereo unspecified), inactive: 3.4%; in that of `CN(C)c1nc2c(Br)c(Br)c(Br)c(Br)c2[nH]1`, inactive: -20.1%.
On to `CCC1CN(Cc2cn[nH]c2-c2ccccc2)Cc2cc(OC)ccc2O1` (stereo unspecified), for which the activation was inactive: -7.76%.
In the case of `O=C(c1ccco1)N1CCC2(CC1)CN(c1cccc(-c3ccccc3)c1)C2` it was inactive: -4.71%; in that of `COc1ccc(C(=O)Oc2ccc3c(-c4ccc(OC)cc4)cc(=O)oc3c2)cc1`, inactive: -9.66%.
Under `C(=C\c1ccccn1)/c1ccccc1` stands inactive: -0.0507%.
For `COc1ccc(CCNc2ncnc3sc(C(=O)N4CCCCC4)c(C)c23)cc1OC`, the activation was inactive: -9.85%.
In the case of `COc1ccc(-c2nc3cnc(OC)nc3n(-c3ccc(OC)cc3)c2=O)cc1` it was inactive: 12.8%; in that of `CNC(=O)c1ccccc1Sc1ccc2c(/C=C/c3ccccn3)n[nH]c2c1`, inactive: 6.59%.
In the case of `O=C(Nc1cccc(F)c1)N1CC[C@@]2(CCCN(C(=O)c3cccc(F)c3)C2)C1` it was inactive: -6.38%; in that of `O=S1(=O)CCOC[C@H](c2ccccc2)N1Cc1ccc(F)cc1`, inactive: -8.24%; in that of `CC(CN1c2ccccc2Sc2ccccc21)N(C)C` (stereo unspecified), inactive: 3.31% and inactive: -30.8% and inactive: -16.6%.
In the case of `O=c1c(-c2ccccc2)nc2cnc(N3CCOCC3)nc2n1Cc1ccc(F)cc1`, the activation was inactive: -33.2%.
In the case of `CCNc1ncc2nc(-c3ccc(OC)cc3)c(=O)n(Cc3cccc(OC)c3)c2n1` it was inactive: -3.92%; in that of `NS(=O)(=O)c1cc2c(cc1C(F)(F)F)NC(Cc1ccccc1)NS2(=O)=O` (stereo unspecified), inactive: 4.82% and inactive: -0.841%.
Take `O[C@@H](c1cc(C(F)(F)F)nc2c(C(F)(F)F)cccc12)[C@H]1CCCCN1`: the activation is inactive: -16.2%.
Under `COCCn1c(=O)c(-c2ccccc2)nc2cnc(Oc3ccc(OC)cc3)nc21` stands inactive: -16.5%.
Under `c1csc(CNc2ncncc2-c2ccc3c(c2)OCO3)c1` stands inactive: -25.2%; under `Nc1nc2ccc([N+](=O)[O-])cc2s1`, inactive: -9.84%.
In the case of `O=C(CCCCCCCCCCCCC1CCCC1)Nc1ccc(S(=O)(=O)c2ccc(NC(=O)CCCCCCCCCCCCC3CCCC3)cc2)cc1` it was inactive: -12.9%; in that of `C=O`, inactive: -7.37%; in that of `COc1cc(C[C@H]2C(=O)OC[C@@H]2Cc2ccc(OC)c(OC)c2)ccc1O`, inactive: -2.47%.
In the case of `O=C(c1csnn1)N1CCC2(CCN(Cc3cc(C(F)(F)F)cc(C(F)(F)F)c3)CC2)CC1`, the activation was inactive: -22.9%.
As to `CS(=O)(=O)N1CCC[C@@]2(CCN(Cc3ccc(C#N)cc3)C2)C1`, the activation is inactive: -14.3%.
Under `COc1ccc(CNc2ncncc2-c2ccccc2Cl)c(OC)c1` stands inactive: 4.66%; under `CN1CCC(=O)N(CCSc2ccccc2)CC1`, inactive: -19%; under `COc1ccc(-n2c(=O)c(C)nc3cnc(Oc4cccc(Cl)c4)nc32)cc1`, inactive: 7.74%.
Turning to `CC(O)CN(C)C` (stereo unspecified), the activation is inactive: -23.8%.
With `N#Cc1cccc(-c2nc(NCc3cccnc3)c3ccccc3n2)c1`, the activation was inactive: -26.5%.
Regarding `COc1ccccc1CN1CCCC(n2cc(C(=O)N3CCCC3)nn2)C1` (stereo unspecified), the activation is inactive: -2.92%.
In the case of `COC(=O)C1=CO[C@@H](O[C@H]2OC(CO)C(O)C(O)C2O)C2C1CC(O)C2C` (stereo partly specified) it was inactive: -12.9%; in that of `CCC(/C=C/C(C)C1CCC2C3CCC4=CC(=O)CC[C@@]4(C)C3CC[C@@]12C)C(C)C` (stereo partly specified), inactive: 6.91%; in that of `CCCCC[C@H]1CN(C2CCCCC2)C(=O)[C@@H]1CC(=O)NCc1ccc(OC)cc1`, inactive: -19.4%.
In the case of `COc1cc(-c2ccc(Cl)cn2)cc2c1OCCN(C(=O)c1ccccc1-n1cccn1)C2` it was inactive: -18.5%; in that of `COCCn1c(=O)c(-c2ccc(F)cc2)nc2cnc(N(C)C)nc21`, inactive: -12%.
Under `COC(=O)C1CCCCN1Cc1nc(N(C)C)c2ccccc2n1` (stereo unspecified) stands inactive: 5.75%.
Consider `CC(C)[C@H](CO)Nc1nc(Nc2cc(N)cc(Cl)c2)c2ncn(C(C)C)c2n1`, for which the activation was inactive: -13.6%.
Under `COc1cc2c(c(OC)c1OC)-c1ccc(OC)c(=O)cc1[C@@H](NC(C)=O)CC2` stands inactive: -6.4% and inactive: -27.6%; under `CN(CCO)C(=O)c1cn(C2CCN(Cc3cccc4ccccc34)CC2)nn1`, inactive: -6.32%.
Regarding `O=C(c1ccc(OCCN2CCCCC2)cc1)c1c(-c2ccc(O)cc2)sc2cc(O)ccc12`, the activation was inactive: 8.53%.
With `COc1cccc(-c2nccc(-n3ccnc3)n2)c1`, the activation is inactive: 2.06%.
Under `O=C1c2ccccc2-c2n[nH]c3cccc1c23` stands inactive: 4.77% [middle of 5 runs]; under `CC(=O)OC1CC[C@@]2(C)C(CC[C@@]3(C)C2CC=C2C4CC(C)(C)CC[C@]4(C(=O)O)CC[C@@]23C)C1(C)C` (stereo partly specified), inactive: -10.9%.
As for `OC(c1ccc2c(c1)CN(Cc1cccc3nccnc13)CCO2)C1CCCCC1` (stereo unspecified), the activation is inactive: -5.21%.
As to `N#Cc1ccccc1-c1ccc2ncnc(NC3CC3)c2c1`, the activation was inactive: -9.39%.
Take `CCCc1nc(C)c2c(=O)[nH]c(-c3cc(S(=O)(=O)N4CCN(CC)CC4)ccc3OCC)nn12`: the activation was inactive: -3.46%.
In the case of `CC(Oc1ccccc1)C(=O)N[C@@H]1C(=O)N2[C@@H]1SC(C)(C)[C@@H]2C(=O)OCc1ccccc1` (stereo partly specified) it was inactive: -32.9%; in that of `C[N+]1(C)[C@@H]2CC(OC(=O)[C@H](CO)c3ccccc3)C[C@H]1[C@H]1O[C@@H]12` (stereo partly specified), inactive: -10.5%.
Take `COc1ccc(NC(=O)N2CCCC3(CCN(C(=O)c4c(C)noc4C)CC3)C2)cc1`: the activation was inactive: -9.38%.
Under `NS(=O)(=O)c1cc2c(cc1Cl)N[C@@H]([C@@H]1C[C@@H]3C=C[C@H]1C3)NS2(=O)=O` stands inactive: -20.7%; under `O=C(O)CCc1nc2ccccc2[nH]1`, inactive: 2.57%; under `CC(C)(O)C#Cc1ccc(CN2CCc3nnc(CNC(=O)c4cccc(F)c4)n3CC2)cc1`, inactive: -3.76%.
Under `CCC(C)(CN(C)C)OC(=O)c1ccccc1` (stereo unspecified) stands inactive: -10.4%; under `C[N+]1(CC(=O)c2ccc(I)cc2)CCCc2ccccc21` (stereo unspecified), inactive: -5.16%; under `OCc1ccc(-c2nn(Cc3ccccc3)c3ccccc23)o1`, inactive: 2.92%.
